# Source: the RNAGym collection of RNA variant scans (doi:10.7554/elife.90254)
# The source gives no read counts; variants with many changes may rest on few reads.
# B1: OR4K15 (parent)
# chain: GUUAACGGUCAUAGGCCAUGGAAACUAGGAGCACCAUUUCGCUGCCAGUGAAGAAAUGAACAAAGAAAAUCUGGGCCAGGCAGGCAUCAAAAGAAAUAGUCUUGCGCUCAACCAGAAAGUCUGUAAUCAUUUUAAGGGUA
# Variants of: B1
# Test: self-cleavage, relative activity (ratio to wild type); higher = more cleavage; in vitro, sequencing; the parent is a self-cleaving ribozyme
row,Variant,self-cleavage
1,U2C A33U G115A A117C U132A,0.07
2,U2C A33U U100C A111U U132C,0.21
3,U2C A36U A89U,1.27
4,U2C A47G A51G A64G U72G G93A U102C,0.25
5,U2C A47G A51G U130C,0.46
6,U2C A47G A62G A64U U70C U102G U122C,0.15
7,U2C A47G C101U,0.29
8,U2C A47U A54G G73A U108C,0.01
9,U2C A47U G104A,0
10,U2C A51G A52G A63U C76G,0.2
11,U2C A51G A62G,1.05
12,U2C A51G A66G A90G U132C,1.27
13,U2C A51G C61U A69G A111G,0.13
14,U2C A51G U102A U108C A125G,0
15,U2C A51G U103C,0.84
16,U2C A51U U108C,0.03
17,U2C A52G A55U A66G,0.77
18,U2C A52G A94G U108C A110U,0.01
19,U2C A52G U57C A96G,0.68
20,U2C A52G U70A U127G A129G,0.43
21,U2C A52G U70C A82U U132C,0.13
22,U2C A52G U103C U127A U132C,0.03
23,U2C A52G U120C,1.7
24,U2C A54G A68G,1.47

row,Variant,self-cleavage
1,U2C A54G A68G U120A U122C,1.14
2,U2C A54G A78U U108C,0
3,U2C A54G A86G,0.72
4,U2C A54G A86G G99U U100C U122C G136A,0.17
5,U2C A54G G80C,0.12
6,U2C A54G U132A,0.76
7,U2C A54U A56G A129G,0.25
8,U2C A54U A114G,0.32
9,U2C A55G A66G,1.23
10,U2C A55G C61U A96U U122C U133G,0.63
11,U2C A56G A59U G83A U102C U127C,0.18
12,U2C A56G A86U U122C,1.79
13,U2C A56G A110G,0.17
14,U2C A56G A135G,0.86
15,U2C A56G U100C,0.62
16,U2C A59G A60G A63U U108C,0.04
17,U2C A59G A95G,1.23
18,U2C A59G A129U,0.57
19,U2C A59G U130C,0.22
20,U2C A59G U132C,0.32
21,U2C A60C A62G A91G,0.91
22,U2C A60G A64U G79U,0.17
23,U2C A60G U70C,0.46
24,U2C A62G A63U,1.52

row,Variant,self-cleavage
1,U2C A62G A94G,0.42
2,U2C A62G A125G A140G,0.3
3,U2C A63G U120C U139G,0.97
4,U2C A63U A94G,1.98
5,U2C A64G A68G A89G,0.77
6,U2C A64G A92G U127C,0.73
7,U2C A64G U120G U122C,1.44
8,U2C A66C A110G,0.19
9,U2C A66G A78G U100A C112U A114G,0.02
10,U2C A66G A89U A91G A95G,0.78
11,U2C A67C A98G,0.78
12,U2C A67G A90G A111G A118G,0.01
13,U2C A67G A114G,0.58
14,U2C A67U U130C,0.29
15,U2C A68G A111G,0.03
16,U2C A68G A116G,0.35
17,U2C A68G G119A,0.51
18,U2C A69G U100C A110G,0.18
19,U2C A78G A110G,0.01
20,U2C A78G A134G,0.63
21,U2C A78G U122C,0.21
22,U2C A78U A111G A114G U127C,0
23,U2C A89G A110G,0.14
24,U2C A90C A125G,0.24

row,Variant,self-cleavage
1,U2C A91G C105U A117G U127C U132C,0
2,U2C A91G U100C,0.86
3,U2C A91G U108A,0.03
4,U2C A91U U103C,0.65
5,U2C A92G A96G U102C G136U,1.59
6,U2C A92G A129G U132A,0.73
7,U2C A92U C128A,0.5
8,U2C A94G A111U U120C,0
9,U2C A94G A116G,1.44
10,U2C A96G A118G,1.66
11,U2C A110G A114U,0
12,U2C A118G U131C,0.16
13,U2C A118U A134C,0.31
14,U2C C6A U39A A52U C85U U100A,0.53
15,U2C C6U A110G U120C A126G,0.02
16,U2C C6U C45U A47U A56G A63U A140G,1.63
17,U2C C6U U38G U39C,0.19
18,U2C C17A A33G G44A A55C,0.68
19,U2C C17U A18G A56G,1.08
20,U2C C71U A118G,0.3
21,U2C C76A A90G U132A,0.21
22,U2C C76U A95G A135G,0.01
23,U2C G7U A51G A56C A92G,0.59
24,U2C G8A A67G A96G A110G A118G,0.11

row,Variant,self-cleavage
1,U2C G14U A59U A95G A118G,0.73
2,U2C G15A A82G U87C U132C,0.13
3,U2C G31A A60G,0.59
4,U2C G31U A95G A114U A140G,0.2
5,U2C G41C U57A A78U A110G,0.05
6,U2C G44A A52G,0.93
7,U2C G58A A96G U108C A118G,0.01
8,U2C G65A A89G U108A,0.01
9,U2C G74A U100C U132C,0.27
10,U2C G74C A114U,0.05
11,U2C G75A A86G,0.1
12,U2C G79A A98U A117G A118G U130C,0.02
13,U2C U3C A68G A116G,0.51
14,U2C U9A A52G,0.88
15,U2C U9C A13U,1.71
16,U2C U9C A52G A98U,0.89
17,U2C U9C A59U,1.6
18,U2C U9C A60G A94G,1.17
19,U2C U9C A114U,0.03
20,U2C U12C A18G A67G,0.75
21,U2C U12C A51U A86G,1.62
22,U2C U12C A60G A92G U120C U127C,0.43
23,U2C U12C U43A A89U C101G,0.42
24,U2C U12G U43C A56G,0.44

row,Variant,self-cleavage
1,U2C U19A A23G U87C A94G G106A,0.05
2,U2C U19A A52U A62G U132G,0.83
3,U2C U19A A67U U100C,1.23
4,U2C U19C A60G,0.9
5,U2C U19G A33G A59G A66G,0.3
6,U2C U26A A67G A89U A126G,0.76
7,U2C U26C A78G U103C A135U,0.55
8,U2C U26C A90G,1.28
9,U2C U37A A78G C113A,0.02
10,U2C U37C A55G U131C,1.38
11,U2C U37C A59G A66U A78G U120C A125G,0.03
12,U2C U37C A68G A117G U130C G137U,1.33
13,U2C U37C A68G U70A,0.7
14,U2C U37C A90G C105U U132C,0.09
15,U2C U37C A95G,1.18
16,U2C U37C U43C A51G U72A,0.22
17,U2C U37C U87C A90U A114G,0.29
18,U2C U37C U122C,0.91
19,U2C U38A A56G A92U A110G U132C,0.24
20,U2C U38C A51G A62G C109A U131C,0.1
21,U2C U38C A62U A68G,0.56
22,U2C U38C A90U U120C A135G,0.79
23,U2C U39A U87A,0.72
24,U2C U39C A62G A66G U132G,1.64

row,Variant,self-cleavage
1,U2C U43A A116G,0.52
2,U2C U43A U72C U139C,0.07
3,U2C U43C A54G C101U,0.51
4,U2C U43C A64G A111G,0.08
5,U2C U43C A69G U103C,0.23
6,U2C U49C G104A,0.02
7,U2C U49G A67G C128A,1.16
8,U2C U57A A59G A60G U139C,0.71
9,U2C U57C A94G U100C A116G U139C,1.52
10,U2C U57C U70C A118G,0.26
11,U2C U57G U87A A90G A129G,0.87
12,U2C U72A U132C,0.15
13,U2C U72C A94G,0.13
14,U2C U72C C101A,0.12
15,U2C U72C U100A A126G U131C A140U,0.02
16,U2C U87C A111G A114G U132C,0.02
17,U2C U87C U132C,1.31
18,U2C U102C A117U,0.98
19,U2C U102C G106A,0.02
20,U2C U108C A110G U120C,0.02
21,U2C U122C U132A,0.64
22,U2G A5G A23G,0.96
23,U2G A5G A51G U131G,0.81
